# Experimental data: PMC4336329 (PLoS ONE, 2015)
# In all, about 310,000 compounds went through this assay and about 2,200 (0.71%) showed an effect of 50% or more. Effects have a minus sign here. The list shows a part of the results.
# Molecular target: human ether-à-go-go-related gene (hERG) potassium channel (human, UniProt Q12809)
# Experiment: primary screen, population patch clamp on CHO cells stably expressing hERG
# human ether-à-go-go-related gene (hERG) potassium channel, sequence (Q12809 whole entry, looked up): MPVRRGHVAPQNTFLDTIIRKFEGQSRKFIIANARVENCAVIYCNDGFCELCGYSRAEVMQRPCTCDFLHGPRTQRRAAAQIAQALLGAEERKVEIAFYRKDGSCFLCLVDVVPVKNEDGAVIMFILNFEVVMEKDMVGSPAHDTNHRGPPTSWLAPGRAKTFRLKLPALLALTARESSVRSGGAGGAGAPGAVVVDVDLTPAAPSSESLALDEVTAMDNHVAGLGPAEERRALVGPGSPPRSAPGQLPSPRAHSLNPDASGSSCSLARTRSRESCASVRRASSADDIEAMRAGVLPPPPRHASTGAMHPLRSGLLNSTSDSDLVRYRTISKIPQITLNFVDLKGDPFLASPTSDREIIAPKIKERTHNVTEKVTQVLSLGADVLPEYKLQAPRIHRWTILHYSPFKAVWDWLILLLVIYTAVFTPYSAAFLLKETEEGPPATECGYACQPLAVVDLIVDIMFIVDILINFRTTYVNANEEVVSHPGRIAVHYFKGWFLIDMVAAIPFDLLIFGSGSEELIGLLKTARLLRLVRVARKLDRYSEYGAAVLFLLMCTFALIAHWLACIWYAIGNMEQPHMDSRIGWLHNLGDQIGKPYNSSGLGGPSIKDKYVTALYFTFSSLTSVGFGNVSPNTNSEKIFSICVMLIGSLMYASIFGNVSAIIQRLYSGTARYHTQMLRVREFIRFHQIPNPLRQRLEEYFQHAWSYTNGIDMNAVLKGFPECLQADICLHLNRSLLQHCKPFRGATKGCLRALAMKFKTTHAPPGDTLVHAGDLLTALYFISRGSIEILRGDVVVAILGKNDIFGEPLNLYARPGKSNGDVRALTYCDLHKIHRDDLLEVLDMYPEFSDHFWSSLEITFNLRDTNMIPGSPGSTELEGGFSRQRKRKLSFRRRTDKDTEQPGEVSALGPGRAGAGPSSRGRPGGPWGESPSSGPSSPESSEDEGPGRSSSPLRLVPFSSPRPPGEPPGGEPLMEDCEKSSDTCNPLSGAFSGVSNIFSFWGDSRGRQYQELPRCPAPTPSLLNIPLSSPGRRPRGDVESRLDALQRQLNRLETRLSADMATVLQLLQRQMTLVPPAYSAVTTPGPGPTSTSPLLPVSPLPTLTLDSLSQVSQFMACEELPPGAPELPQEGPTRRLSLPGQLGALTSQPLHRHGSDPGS
row,SMILES,"hERG current change (%, negative = inhibition) at 1uM [%]"
1,COc1cc(-c2cc(C(=O)Nc3ccc(S(N)(=O)=O)cc3)c3ccccc3n2)cc(OC)c1OC,20
2,Cc1ccc(NC(=O)CSc2ccc3nnc(-c4cccnc4)n3n2)cc1,5.38
3,CCCCNC(=O)CNC(=S)N(CCCN1CCOCC1)Cc1cccs1,-0.381
4,CCOc1ccccc1C(=O)NCCCCCC(=O)O,18.5
5,CC(=O)c1cccc(NC(=S)N2CCN(CCN3C(=O)c4cccc5cccc(c45)C3=O)CC2)c1,11.7
6,O=C(NCCc1nc2ccccc2[nH]1)/C(=C/c1ccc(F)cc1)NC(=O)c1ccco1,-25.4
7,NC(=O)c1c(NC(NC(=O)c2ccco2)(C(F)(F)F)C(F)(F)F)sc2c1CCCC2,9.43
8,O=C(Nc1cccc(Cl)c1N1CCOCC1)c1cccnc1Cl,8.87
9,COC(=O)[C@@H](Cc1c[nH]c2ccccc12)NC(=O)c1cc(=O)[nH]c2ccccc12,13.2
10,COc1ccc(C(=O)NCc2ccc(C(=O)NCC(OC)OC)cc2)cc1OC,11.9
11,CCC(=O)Nc1cc(OC)c(NC(=O)c2ccccc2)cc1OC,8.66
12,Cc1ccc(OCC(=O)NCCNC(=O)c2ccc(C)nc2)cc1,22.4
13,CC(C)(C)c1ccc(S(=O)(=O)NCCOCC(F)(F)C(F)F)cc1,14.4
14,Cc1cc(Cl)c(OCCCn2ccnc2)c(Br)c1,1.12
15,Cc1ccc(S(=O)(=O)N2CCCCC2)cc1NC(=O)COC(=O)c1cc[n+]([O-])cc1,5.5
16,CC(=O)c1c(C)[nH]c(C(=O)CSc2nnc(N)s2)c1C,11.4
17,O=c1[nH]c(N2CCCCC2)nc2c1CCCC2,-3.9
18,Cc1nc2ccccc2c2oc(C(=O)N3CCN(c4ccc([N+](=O)[O-])cc4)CC3)cc12,13.8
19,COc1ccc(O)c(CN2CCCC(C(=O)c3ccccc3SC)C2)c1 (stereo not shown),13.6
20,Nc1ccc(CCn2ccnc2)cc1,22.6
21,O=C(c1ccccc1)c1ccc2nc(N3CCCCC3)c3nncn3c2c1,14.2
22,CCOC(=O)n1cc(-c2cnc(CNC(=O)C(C)(c3ccccc3)c3ccccc3)o2)c2ccccc21,1.9

row,SMILES,"hERG current change (%, negative = inhibition) at 1uM [%]"
1,Cc1ccc(-c2nc(N)n(C(=O)c3cccs3)n2)cc1,16.9
2,CCCCOc1ccc(C(=O)NCC(=O)NC(C)CCc2ccccc2)cc1 (stereo not shown),5.14
3,O=C(Nc1ccc(NC(=O)c2cccs2)cc1)c1ccc2c(c1)OCO2,6.34
4,COCCNC(=O)c1ccc(N2CCC3(CC2)OCCO3)c([N+](=O)[O-])c1,11.7
5,CCOC(=O)c1c(NC(=O)COC(=O)CNC(=O)c2ccc(Cl)cc2Cl)sc(C(=O)N(C)C)c1C,20.1
6,COC(=O)c1ccccc1NC(=O)CSc1nc2cccnc2n1C,11.5
7,C=CCNC(=O)c1cccc(OC2CCN(CC(C)(C)C)CC2)c1,11.7
8,CCOC(=O)N1CCN(c2nc(-c3ccc(F)cc3)cs2)CC1,12.6
9,Cc1[nH][nH]c(=O)c1C(c1cc(Br)ccc1O)c1c(C)[nH][nH]c1=O,12
10,CCOCC(=O)Nc1cc(C(F)(F)F)ccc1Oc1cccc(Br)c1,12.8
11,CCc1cc2c(=O)[nH]c(COC)nc2s1,22.1
12,Cc1cc2cc3c(cc2nc1SCC(=O)N1CCOCC1)OCO3,4.84
13,CCOc1ccccc1N1Cc2ccccc2C1,14.1
14,Cc1cc(Cl)ccc1OCCCC(=O)N1CCCc2ccccc21,-3.95
15,Cc1ccc(CSc2nnc(CNc3ccc(F)cc3)o2)cc1,13.1
16,Cc1cc(NC(=O)CS(=O)(=O)c2cn(C)c3ccccc23)no1,21.7
17,Cc1ccc(CC23CN4CCN(CC(C4)C2O)C3)c(C)c1 (stereo not shown),14.8
18,Cc1ccsc1S(=O)(=O)N1CCCC(CCC(=O)NCc2ccccc2F)C1 (stereo not shown),13.2
19,Cc1onc(-c2ccccc2Cl)c1-c1nc(-c2ccccn2)no1,1.77
20,CCOC(=O)C1CCCN(S(=O)(=O)c2cccc3nsnc23)C1 (stereo not shown),12.1
21,CCOc1ccc(C2C(C#N)=C(N)Oc3c2c(=O)oc2ccccc32)cc1 (stereo not shown),-5.07
22,O=C(Nc1cccc(S(=O)(=O)N2CCOCC2)c1)C1=NN(c2ccccc2)C(=O)CC1,6.75

row,SMILES,"hERG current change (%, negative = inhibition) at 1uM [%]"
1,Cc1ccc(C2c3c(oc4cc(C)c(C)cc4c3=O)C(=O)N2CCCN2CCOCC2)cc1 (stereo not shown),-0.143
2,Cc1ccc(-n2nc(CN3CCOCC3)c(-c3ccccc3)c2N)cc1Cl,13.7
3,CCN(Cc1ccc(NC(C)=O)cc1)CC1CCCN(CCc2cccc(F)c2)C1 (stereo not shown),9.42
4,CN(C)S(=O)(=O)Oc1ccsc1C(=O)Nc1ccc(Br)cc1,8.42
5,Cc1nc(C)c(-c2csc(Nc3cccnc3)n2)s1,13.7
6,Clc1ccc(CO/N=C/c2c(-c3ccccc3)nc3n2CCS3)c(Cl)c1,12.8
7,CC(=O)c1cn(-c2ccc([N+](=O)[O-])cc2)c(=O)n(C)c1=O,-7.77
8,Cc1ccccc1NC(=O)COC(=O)c1cccc(S(=O)(=O)N2CCCCC2)c1,0.757
9,Cn1ccnc1C(=O)c1cc(SCC(=O)N2CCOCC2)nc2ccccc12,10.8
10,CCOC(=O)[C@H]1[C@H]2COc3ccc(OC)cc3[C@@H]2N2C(=O)CN(Cc3ccco3)C(=O)[C@@]12C,15
11,Cc1ccsc1/C=N/NC(=O)CNC(=O)c1ccc(S(=O)(=O)N2CCOCC2)cc1,5.79
12,O=S(=O)(c1ccc(Br)cc1)N1CCCC1c1nc2ccccc2s1 (stereo not shown),1.59
13,N#C/C(=C(/O)COC(=O)CCC1CCCCC1)c1nc2ccccc2[nH]1,10.2
14,CCCc1cc(=O)oc2c(C)c(OCc3nn[nH]n3)ccc12,11.2
15,O=C1C=C(c2ccc(Cl)c(C(F)(F)F)c2)C[C@@H](c2ccc(Cl)cc2)C1,7.33
16,CSc1ncc(C(=O)Nc2ccccc2F)c(-c2ccccc2)n1,10.2
17,Cc1ccccc1CS(=O)(=O)Cc1ccc(C(=O)NCC2CCCO2)o1 (stereo not shown),0.816
18,Cc1cc(CNC(=O)C2(C(F)(F)F)C/C(=C\Cc3ccccc3)CCCO2)nn1C (stereo not shown),21.2
19,Cc1ccc(C(=O)NC2CCCCCCC2)c(Cl)c1,12.1
20,O=C1CN(C(=O)COC(=O)C2=COCCO2)c2ccccc2N1,0.237
21,COc1ccc(NC(=O)CN(c2ccc(C)cc2)S(=O)(=O)c2c(C)nn(C)c2C)cc1,8.63
22,Cc1cccn2c1nc(=S)n2C(=O)c1ccco1,11.6

row,SMILES,"hERG current change (%, negative = inhibition) at 1uM [%]"
1,NS(=O)(=O)c1ccc(NC(=O)c2cc(-c3ccccc3O)n[nH]2)cc1,10.6
2,CC(=O)NCC(=O)OCC(=O)c1ccc(C)c(C)c1,4.73
3,CCOc1ccc(-n2c(SCc3ccc([N+](=O)[O-])cc3)nnc2-c2ccc(OC)cc2)cc1,10.7
4,O=C(NCCN1CCOCC1)c1cc2cc(Br)ccc2oc1=O,0.63
5,CCC(C(=O)O)n1nc(-c2ccccc2)c2cc(Cl)ccc21 (stereo not shown),3.89
6,COc1ccc(-c2nc(C=O)cs2)cc1,2.62
7,CCOc1ncccc1C(=O)OCC(=O)Nc1cccc(C(C)=O)c1,-9.55
8,CC1(c2ccc(Cl)cc2)NC(=S)N2C1NC(=S)N2c1ccccc1 (stereo not shown),3.14
9,Cc1ccc(-c2nnn(CCC(=O)Nc3ccc4c(c3)OCO4)n2)cc1,1.6
10,COc1ccc(Nc2nc(C)nc3sc4c(c23)CCC4)cc1O,7.97
11,CCCCCc1ccc(-c2cn(CN3C(=O)c4ccccc4C3=O)nn2)cc1,-1.84
12,Cc1[nH]c2ccc(C(=O)NCCCN(C)C3CCCCC3)cc2c1C,-0.909
13,O=C(Nc1ccc2c(c1)OC1(CCCC1)O2)C1CC1,13.4
14,COc1ccccc1CC(=O)Nc1ccc2[nH]ncc2c1,-0.0473
15,NC(=O)c1cccc(CC(=O)c2ccccc2)c1,12.4
16,NC(=O)CSc1nnc(CSc2ncccn2)n1-c1ccccc1,5.45
17,CCOC(=O)N1CCN(S(=O)(=O)c2ccc(C(=O)Nc3sc4c(c3C#N)CC(C)(C)NC4(C)C)cc2)CC1,12.1
18,Cc1ccc(C)c(N(C(=O)CNC(=O)c2ccco2)C(C(=O)NC2CCCC2)c2ccncc2)c1 (stereo not shown),13.4
19,Cc1ccccc1OC(C)C(=O)NC1CCCC1 (stereo not shown),6.92
20,COC(=O)C1=C(C)N(Cc2ccco2)C(=O)N[C@@H]1c1ccccc1,7.03
21,CSc1cccc(NC(=O)c2cc(S(=O)(=O)N3CCCC3)cn2C)c1,9.64
22,O=C(CN1C(=O)CSc2ccc(S(=O)(=O)N3CCOCC3)cc21)NCc1ccc(Cl)cc1,1.17
